Test results from publication PMC5986797, “Laminin heparin-binding peptides bind to several growth factors and enhance diabetic wound healing” (Nature Communications, 2018).

Tests used:
Test in all cases: ELISA; plates coated with 50 nM GF or chemokine in PBS; 10 nM laminin isoform in PBS added; bound laminin detected with anti-LAMC1 or anti-LAMA3 polyclonal antibody; A450 signals greater than 0.1 taken as binding; BSA-coated wells as control
Details in all cases: both partners purified
[1] = target: T1, recombinant human laminin-521 (human, UniProt O15230 36-3695; P55268 33-1798; P11047 34-1609)
T1 construct: laminin subunit alpha-5, human; chain told by the isoform's name; laminin subunit beta-2, human; laminin subunit gamma-1, human; also called laminin isoform-521; source: bought: BioLamina (recombinant human, >95% purity); copies: + +

[2] = target: T2, recombinant human laminin-511 (human, UniProt O15230 36-3695; P07942 22-1786; P11047 34-1609)
T2 construct: laminin subunit alpha-5, human; chain told by the isoform's name; laminin subunit beta-1, human; laminin subunit gamma-1, human; source: bought: BioLamina (recombinant human, >95% purity); copies: + +

[3] = target: T3, recombinant human laminin-211 (human, UniProt P24043 23-3122; P07942 22-1786; P11047 34-1609)
T3 construct: laminin subunit alpha-2, human; chain told by the isoform's name; laminin subunit beta-1, human; laminin subunit gamma-1, human; source: bought: BioLamina (recombinant human, >95% purity); copies: + +

[4] = target: T4, recombinant human laminin-111 (human, UniProt P25391 18-3075; P07942 22-1786; P11047 34-1609)
T4 construct: laminin subunit alpha-1, human; chain told by the isoform's name; laminin subunit beta-1, human; laminin subunit gamma-1, human; source: bought: BioLamina (recombinant human, >95% purity); copies: + +

Measured: binding result

B1: C–X–C motif ligand (CXCL)-12γ (ligand)
chain: not shown
notes: C-X-C motif chemokine 12 (SDF-1), gamma form, bought in its mature form; source: bought: R&D systems
binds: all assays above
